For three molecules, binding results are on record in paper PMC7459111.

Chains of the proteins cited; added tags and fusions are not shown. Residues count along the entry.
UniProt Q03265, residues 44-553: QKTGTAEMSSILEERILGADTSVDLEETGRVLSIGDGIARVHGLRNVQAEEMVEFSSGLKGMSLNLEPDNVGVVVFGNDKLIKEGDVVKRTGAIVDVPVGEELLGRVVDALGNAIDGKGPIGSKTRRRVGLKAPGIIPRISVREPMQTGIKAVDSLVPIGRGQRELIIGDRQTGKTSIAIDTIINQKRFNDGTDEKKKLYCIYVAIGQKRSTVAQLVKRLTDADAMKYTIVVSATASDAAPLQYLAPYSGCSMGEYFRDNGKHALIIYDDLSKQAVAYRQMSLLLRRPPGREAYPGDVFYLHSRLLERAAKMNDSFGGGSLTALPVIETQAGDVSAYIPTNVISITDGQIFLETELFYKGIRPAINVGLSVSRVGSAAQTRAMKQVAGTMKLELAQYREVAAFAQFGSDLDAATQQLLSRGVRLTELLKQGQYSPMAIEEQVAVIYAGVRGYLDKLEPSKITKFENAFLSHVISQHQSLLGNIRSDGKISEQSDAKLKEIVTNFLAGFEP

For test [1], the target named is ATP Synthase F1 Subunit Alpha (ATP5A) (mouse (endogenous in mouse chondrocytes)) (UniProt Q03265). Nature of the test: co-IP; chondrocyte mitochondrial extracts incubated with antibody to ATP5A or a nonspecific isotype-matched IgG; immunoprecipitates probed for RGS12.
The target of test [2] is T1, regulator of G-protein signaling 12 (RGS12) (mouse (endogenous in mouse chondrocytes)) (UniProt Q8CGE9).
T1 sequence: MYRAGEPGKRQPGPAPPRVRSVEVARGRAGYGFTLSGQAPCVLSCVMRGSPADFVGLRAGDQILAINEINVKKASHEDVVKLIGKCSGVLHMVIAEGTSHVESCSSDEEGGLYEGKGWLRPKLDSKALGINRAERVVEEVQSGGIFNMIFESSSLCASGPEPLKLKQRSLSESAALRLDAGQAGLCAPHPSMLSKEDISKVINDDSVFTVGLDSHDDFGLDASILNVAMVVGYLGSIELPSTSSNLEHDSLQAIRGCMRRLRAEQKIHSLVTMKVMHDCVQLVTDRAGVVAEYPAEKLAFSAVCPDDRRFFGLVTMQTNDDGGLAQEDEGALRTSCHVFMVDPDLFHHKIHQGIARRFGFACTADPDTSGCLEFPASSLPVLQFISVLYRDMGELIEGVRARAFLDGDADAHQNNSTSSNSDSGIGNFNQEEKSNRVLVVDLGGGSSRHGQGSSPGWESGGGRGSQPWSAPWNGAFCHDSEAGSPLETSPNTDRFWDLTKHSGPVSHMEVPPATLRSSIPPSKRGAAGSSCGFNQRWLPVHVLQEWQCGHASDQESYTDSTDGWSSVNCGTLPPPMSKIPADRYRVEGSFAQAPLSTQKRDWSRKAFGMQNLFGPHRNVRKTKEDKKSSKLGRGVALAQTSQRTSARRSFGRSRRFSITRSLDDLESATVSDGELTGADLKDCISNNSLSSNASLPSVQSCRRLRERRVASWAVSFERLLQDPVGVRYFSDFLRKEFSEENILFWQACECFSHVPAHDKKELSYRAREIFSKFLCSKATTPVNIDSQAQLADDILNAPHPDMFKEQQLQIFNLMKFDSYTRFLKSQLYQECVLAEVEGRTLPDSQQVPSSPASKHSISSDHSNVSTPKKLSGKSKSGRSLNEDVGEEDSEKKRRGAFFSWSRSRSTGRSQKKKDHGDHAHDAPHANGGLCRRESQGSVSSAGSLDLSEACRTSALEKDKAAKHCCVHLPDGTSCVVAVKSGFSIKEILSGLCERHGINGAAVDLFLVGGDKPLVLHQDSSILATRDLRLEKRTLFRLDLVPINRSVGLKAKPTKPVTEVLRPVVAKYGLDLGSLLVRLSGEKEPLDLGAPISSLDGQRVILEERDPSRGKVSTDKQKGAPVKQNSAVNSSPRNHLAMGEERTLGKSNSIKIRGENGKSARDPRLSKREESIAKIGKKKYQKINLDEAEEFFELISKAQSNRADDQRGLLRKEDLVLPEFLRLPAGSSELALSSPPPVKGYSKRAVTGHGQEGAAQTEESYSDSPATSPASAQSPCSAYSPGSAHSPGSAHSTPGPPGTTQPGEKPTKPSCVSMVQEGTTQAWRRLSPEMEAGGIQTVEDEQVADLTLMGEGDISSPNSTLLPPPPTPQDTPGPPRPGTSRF
Description: co-IP; cell lysates of mouse chondrocytes (NP-40 buffer) incubated with anti-RGS12 or control IgG, protein A/G beads; bound protein blotted with the OXPHOS antibodies.

No constants are given. Whether binding was seen depends on the method and setting. In cells and extracts the contact can be indirect. Some binding calls cover weakened binding; strength is not graded here.

B1: regulator of G-protein signaling 12 (RGS12) (protein, UniProt Q8CGE9 1-1381)
chain: T1 sequence
Turning to B1, the binding entry in test [1] is “binds”.

B2: UQCRC2 (protein, UniProt Q9DB77 15-453)
chain: SLKVAPKVKTSAAPGGVPLQPQDLEFTKLPNGLVIASLENYAPLSRIGLFVKAGSRYEDSNNLGTSHLLRLASSLTTKGASSFKITRGIEAVGGKLSVTATRENMAYTVEGIRSDIEILMEFLLNVTTAPEFRRWEVAALRSQLKIDKAVAFQNSQTRIIENLHDVAYKNALANPLYCPDYRMGKITSEELHYFVQNHFTSARMALVGLGVSHSVLKQVAEQFLNMRGGLGLAGAKAKYRGGEIREQNGDNLVHAAIVAESAAIGNAEANAFSVLQHLLGAGPHIKRGNNTTSLLSQSVAKGSHQPFDVSAFNASYSDSGLFGIYTISQAAAAGEVINAAYNQVKAVAQGNLSSADVQAAKNKLKAGYLMSVETSEGFLSEIGSQALAAGSYMPPSTVLQQIDSVADADVVKAAKKFVSGKKSMAASGNLGHTPFLDEL
On to B2, for which the binding entry in test [2] is recorded as “no binding”.

B3: SDHB (protein, UniProt Q9CQA3 31-282)
chain: AQTAAAAAPRIKKFAIYRWDPDKTGDKPRMQTYEVDLNKCGPMVLDALIKIKNEVDSTLTFRRSCREGICGSCAMNINGGNTLACTRRIDTDLSKVSKIYPLPHMYVIKDLVPDLSNFYAQYKSIEPYLKKKDESQEGKQQYLQSIEDREKLDGLYECILCACCSTSCPSYWWNGDKYLGPAVLMQAYRWMIDSRDDFTEERLAKLQDPFSVYRCHTIMNCTQTCPKGLNPGKAIAEIKKMMATYKEKRALA
In the case of B3, the binding entry in test [2] is given as “no binding”.
